# PMC9911399, “Two distinct binding modes provide the RNA-binding protein RbFox with extraordinary sequence specificity”
# Numbering of substitutions follows the chain as printed; changes in the protein carry UniProt numbers. The list shows a part of the results.
# T1: RBFOX1 RRM RbFoxmut (Fox-RRM*) (Homo sapiens, UniProt Q9NWB1 109-208, R118D;E147R;N151S;E152T)
# T1 sequence: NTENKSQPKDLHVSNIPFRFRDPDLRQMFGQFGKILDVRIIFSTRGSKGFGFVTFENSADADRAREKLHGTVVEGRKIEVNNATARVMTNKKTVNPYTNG
# B1: UACGUCA (DNA:RNA)
# RNA: GGGAGACCGGAAUUCAGAUUGUCCUACGUCAUUAAAUCCCGUCGUAGCCACCA
# DNA 1: CAATCTGAATTCCGGTCTCCC
# DNA 2: TGGTGGCTACGACGGGATT
# B2: AAUACGA (DNA:RNA)
# RNA: B1 RNA with U25A, C27U, G28A, U29C, C30G
# DNA 1: CAATCTGAATTCCGGTCTCCC
# DNA 2: TGGTGGCTACGACGGGATT
# B3: GGUUACA (DNA:RNA)
# RNA: B1 RNA with U25G, A26G, C27U, G28U, U29A
# DNA 1: CAATCTGAATTCCGGTCTCCC
# DNA 2: TGGTGGCTACGACGGGATT
# B4: UACUCUA (DNA:RNA)
# RNA: B1 RNA with G28U, U29C, C30U
# DNA 1: CAATCTGAATTCCGGTCTCCC
# DNA 2: TGGTGGCTACGACGGGATT
# B5: UAGUGUG (DNA:RNA)
# RNA: B1 RNA with C27G, G28U, U29G, C30U, A31G
# DNA 1: CAATCTGAATTCCGGTCTCCC
# DNA 2: TGGTGGCTACGACGGGATT
# B6: AACCCGC (DNA:RNA)
# RNA: B1 RNA with U25A, G28C, U29C, C30G, A31C
# DNA 1: CAATCTGAATTCCGGTCTCCC
# DNA 2: TGGTGGCTACGACGGGATT
# B7: UGUGGAC (DNA:RNA)
# RNA: B1 RNA with A26G, C27U, U29G, C30A, A31C
# DNA 1: CAATCTGAATTCCGGTCTCCC
# DNA 2: TGGTGGCTACGACGGGATT
# B8: AAAGAUU (DNA:RNA)
# RNA: B1 RNA with U25A, C27A, U29A, C30U, A31U
# DNA 1: CAATCTGAATTCCGGTCTCCC
# DNA 2: TGGTGGCTACGACGGGATT
# B9: UGUGGCG (DNA:RNA)
# RNA: B1 RNA with A26G, C27U, U29G, A31G
# DNA 1: CAATCTGAATTCCGGTCTCCC
# DNA 2: TGGTGGCTACGACGGGATT
# B10: UACGCAU (DNA:RNA)
# RNA: B1 RNA with U29C, C30A, A31U
# DNA 1: CAATCTGAATTCCGGTCTCCC
# DNA 2: TGGTGGCTACGACGGGATT
# B11: AACUUCG (DNA:RNA)
# RNA: B1 RNA with U25A, G28U, A31G
# DNA 1: CAATCTGAATTCCGGTCTCCC
# DNA 2: TGGTGGCTACGACGGGATT
# B12: CAGUUCC (DNA:RNA)
# RNA: B1 RNA with U25C, C27G, G28U, A31C
# DNA 1: CAATCTGAATTCCGGTCTCCC
# DNA 2: TGGTGGCTACGACGGGATT
# B13: GAAUCUC (DNA:RNA)
# RNA: B1 RNA with U25G, C27A, G28U, U29C, C30U, A31C
# DNA 1: CAATCTGAATTCCGGTCTCCC
# DNA 2: TGGTGGCTACGACGGGATT
# B14: CAUUCGU (DNA:RNA)
# RNA: B1 RNA with U25C, C27U, G28U, U29C, C30G, A31U
# DNA 1: CAATCTGAATTCCGGTCTCCC
# DNA 2: TGGTGGCTACGACGGGATT
# B15: GUCGGGG (DNA:RNA)
# RNA: B1 RNA with U25G, A26U, U29G, C30G, A31G
# DNA 1: CAATCTGAATTCCGGTCTCCC
# DNA 2: TGGTGGCTACGACGGGATT
# B16: UGCAGCG (DNA:RNA)
# RNA: B1 RNA with A26G, G28A, U29G, A31G
# DNA 1: CAATCTGAATTCCGGTCTCCC
# DNA 2: TGGTGGCTACGACGGGATT
# B17: CAUCGGG (DNA:RNA)
# RNA: B1 RNA with U25C, C27U, G28C, U29G, C30G, A31G
# DNA 1: CAATCTGAATTCCGGTCTCCC
# DNA 2: TGGTGGCTACGACGGGATT
# B18: GGGUUCC (DNA:RNA)
# RNA: B1 RNA with U25G, A26G, C27G, G28U, A31C
# DNA 1: CAATCTGAATTCCGGTCTCCC
# DNA 2: TGGTGGCTACGACGGGATT
# B19: GAUCCGA (DNA:RNA)
# RNA: B1 RNA with U25G, C27U, G28C, U29C, C30G
# DNA 1: CAATCTGAATTCCGGTCTCCC
# DNA 2: TGGTGGCTACGACGGGATT
# B20: UUUUAAC (DNA:RNA)
# RNA: B1 RNA with A26U, C27U, G28U, U29A, C30A, A31C
# DNA 1: CAATCTGAATTCCGGTCTCCC
# DNA 2: TGGTGGCTACGACGGGATT
# Molecular target: T1, RBFOX1 RRM RbFoxmut (Fox-RRM*)
# Test: EMSA; HiTS-Eq, 1 nM pool, 10 min; buffer printed only for the single-RNA assays: 10 mM Tris pH 7.5, 150 mM NaCl, 3.4 mM EDTA, 0.001% NP-40, 30 C
# Details: tags: His6 N-terminal (pET28a); label: 5' 32P
# Summary of the method: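 Purified wild-type or mutant RbFox RRM at increasing concentrations was equilibrated with 1 nM of 5′-radiolabelled RNA carrying 7 randomized nucleotides for 10 min in 50 µL. Unbound RNA was separated by 8% native PAGE and sequenced. Relative association constants came from read-count changes of each RNA species compared with the control reaction, normalised to the cognate motif.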
row,Binder,binding signal
1,B1,0.0951 KA relative to UGCAUGU
2,B2,0.069 KA relative to UGCAUGU
3,B3,0.0832 KA relative to UGCAUGU
4,B4,0.115 KA relative to UGCAUGU
5,B5,0.21 KA relative to UGCAUGU
6,B6,0.0881 KA relative to UGCAUGU
7,B7,0.0671 KA relative to UGCAUGU
8,B8,0.0888 KA relative to UGCAUGU
9,B9,0.174 KA relative to UGCAUGU
10,B10,0.0843 KA relative to UGCAUGU
11,B11,0.09 KA relative to UGCAUGU
12,B12,0.113 KA relative to UGCAUGU
13,B13,0.156 KA relative to UGCAUGU
14,B14,0.131 KA relative to UGCAUGU
15,B15,0.101 KA relative to UGCAUGU
16,B16,0.154 KA relative to UGCAUGU
17,B17,0.0665 KA relative to UGCAUGU
18,B18,0.166 KA relative to UGCAUGU
19,B19,0.085 KA relative to UGCAUGU
20,B20,0.0716 KA relative to UGCAUGU
